Data published in the antibiotic and cytotoxicity screens of Wong et al. (2023).
The list shows a part of the results.

Key:
HSkMC = human skeletal muscle cells; test: cytotoxicity call (relative viability < 0.9); conditions: 10 µM
HepG2 = test: cytotoxicity call (relative viability < 0.9); conditions: 10 µM
S. aureus RN4220 = test: growth inhibition call (relative growth <= 0.2); conditions: 50 µM

| Structure (SMILES) | cytotoxicity call (HSkMC) | cytotoxicity call (HepG2) | growth inhibition call (S. aureus RN4220) |
| --- | --- | --- | --- |
| COc1ccc([Si](C)(C)[C@@H]2[C@@H](CC(=O)N(CCO)Cc3ccccc3)O[C@]3(C(=O)N(Cc4cccc(N5CCOC5=O)c4)c4ccccc43)[C@H]2C)cc1 | inactive | inactive | inactive |
| O=C(C[C@@H]1CC[C@H](NC(=O)c2ccc(F)cc2)[C@@H](CO)O1)NCc1ccncn1 | inactive | inactive | inactive |
| COc1ccc(S(=O)(=O)N(C)C[C@@H]2Oc3c(NS(=O)(=O)c4cn(C)cn4)cccc3C(=O)N([C@H](C)CO)C[C@@H]2C)cc1 | inactive | inactive | inactive |
| C[C@@H]1CN([C@@H](C)CO)C(=O)c2cccc(NS(=O)(=O)c3cn(C)cn3)c2O[C@H]1CN(C)S(=O)(=O)c1ccc(Cl)cc1 | inactive | inactive | inactive |
| Cc1ccc(S(=O)(=O)Nc2ccc3c(c2)C(=O)N([C@H](C)CO)C[C@@H](C)[C@@H](CN(C)S(C)(=O)=O)OCCCC[C@@H](C)O3)cc1 | inactive | inactive | inactive |
| CO[C@H]1CN(C)C(=O)c2ccc(NC(=O)c3ccc(F)cc3)cc2OC[C@@H](C)N(C(=O)CN(C)C)C[C@@H]1C | inactive | inactive | inactive |
| C=CCN1C(C)=N[C@H]2C=C[C@H](NCCCO)[C@H]21 | inactive | inactive | inactive |
| CCC1OC(=O)CC(O)C(C)C(OC2OC(C)C(OC3CC(C)(O)C(O)C(C)O3)C(N(C)C)C2O)C(CC=O)CC(C)C(=O)C=CC(C)=CC1COC1OC(C)C(O)C(OC)C1OC.O=C(O)C(O)C(O)C(=O)O (configuration not stated) | inactive | inactive | active |
| CCCNC(=O)[C@@]1(Sc2ccc(C)cc2)CC(=O)N(Cc2ccccc2C(F)(F)F)[C@@H]1c1ccc(CO)cc1 | inactive | inactive | inactive |
